{"source": "PubChem BioAssay AID504332", "about": "(National Center for Advancing Translational Sciences (NCATS), 2011)", "note": "In all, about 350,000 compounds went through this assay and about 31,000 (8.9%) were called active. The shares of active, inactive and inconclusive entries below differ from those in the screen. Calls follow the shape of the dose curve; as a rule, active = well fitted inhibition curve with a large enough effect; inconclusive = small, poorly fitted or top-dose-only effect; inactive = no such curve, though single readings can be large or run the other way. A potency beside an inconclusive call is a rough fit, not a confirmed value. % is scaled to controls: 0 for no effect and ±100 for the full control effect; potency is read from the fitted curve at half-maximal effect; tags tell the direction and shape of the fitted curve.", "data": [{"target": "Histone-lysine N-methyltransferase EHMT2 (Homo sapiens) (UniProt Q96KQ7)", "sequence (Q96KQ7 whole entry, looked up)": "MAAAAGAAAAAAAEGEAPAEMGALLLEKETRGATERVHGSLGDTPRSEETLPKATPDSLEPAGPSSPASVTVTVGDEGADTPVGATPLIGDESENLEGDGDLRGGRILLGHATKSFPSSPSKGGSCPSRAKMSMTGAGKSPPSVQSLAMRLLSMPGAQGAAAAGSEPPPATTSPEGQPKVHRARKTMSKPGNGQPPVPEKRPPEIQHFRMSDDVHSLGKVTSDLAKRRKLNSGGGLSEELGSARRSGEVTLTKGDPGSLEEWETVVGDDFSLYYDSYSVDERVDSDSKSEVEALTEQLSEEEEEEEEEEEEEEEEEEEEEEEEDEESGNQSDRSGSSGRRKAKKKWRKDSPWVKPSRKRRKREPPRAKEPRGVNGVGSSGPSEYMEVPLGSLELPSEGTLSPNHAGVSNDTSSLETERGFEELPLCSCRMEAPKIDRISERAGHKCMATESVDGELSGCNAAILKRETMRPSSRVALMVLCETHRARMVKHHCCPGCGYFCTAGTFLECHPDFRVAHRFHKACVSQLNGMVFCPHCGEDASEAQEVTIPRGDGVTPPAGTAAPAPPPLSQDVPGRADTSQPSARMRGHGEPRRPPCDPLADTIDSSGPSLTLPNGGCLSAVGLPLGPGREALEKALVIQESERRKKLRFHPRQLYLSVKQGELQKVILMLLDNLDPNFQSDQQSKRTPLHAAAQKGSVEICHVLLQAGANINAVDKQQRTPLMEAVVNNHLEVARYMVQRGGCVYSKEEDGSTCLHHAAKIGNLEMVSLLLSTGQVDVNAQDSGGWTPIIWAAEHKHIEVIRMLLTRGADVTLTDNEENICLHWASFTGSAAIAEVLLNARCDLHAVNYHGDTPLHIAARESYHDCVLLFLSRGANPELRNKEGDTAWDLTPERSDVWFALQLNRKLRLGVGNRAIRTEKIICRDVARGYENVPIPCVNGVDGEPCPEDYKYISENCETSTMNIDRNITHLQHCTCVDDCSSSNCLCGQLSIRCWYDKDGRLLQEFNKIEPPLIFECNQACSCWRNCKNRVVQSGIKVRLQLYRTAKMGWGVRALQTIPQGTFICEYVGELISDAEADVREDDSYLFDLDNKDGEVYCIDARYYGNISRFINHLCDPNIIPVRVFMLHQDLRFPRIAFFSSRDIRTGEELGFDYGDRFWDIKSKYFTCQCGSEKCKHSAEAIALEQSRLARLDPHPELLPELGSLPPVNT", "experiment": "qHTS Assay for Inhibitors of Histone Lysine Methyltransferase G9a; also: nearly all actives have a fitted effect of over 75% in size", "conditions": "G9a H3K9 monomethylation, AlphaScreen, 2 h; activity, negative = inhibition: at 59 µM (top of the series) unless noted", "outline": "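Step 1: enzyme (final 20 nM) with compound, 15 min RT. Step 2: substrate peptide 500 nM and SAM 20 uM, 2 h RT. Step 3: anti-H3K9me1 antibody and AlphaScreen beads, 10 min, then plate read.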", "values": [{"compound": "CNS(=O)(=O)c1cn(CC(=O)Nc2ccc(OC)c(Cl)c2)cc1S(=O)(=O)NC", "activity, negative = inhibition": "inactive: -20.2%"}, {"compound": "Cc1cc(OCCN2CCOCC2)nc2ccccc12", "Potency": "inconclusive: 56.2 µM [inhibitor, partial curve, poor fit]"}, {"compound": "CCOc1ccc(Nc2nc(-c3sc(N)nc3C)cs2)cc1", "Potency": "active: 35.5 µM"}, {"compound": "N#Cc1c(NC(=O)/C=C/c2ccco2)sc2c1CCCC2", "Potency": "inconclusive: 22.4 µM [inhibitor, single point]"}, {"compound": "O=C(Nc1nsc(-c2ccccc2)n1)c1ccc(F)cc1", "Potency": "inconclusive: 28.2 µM [inhibitor, single point]"}, {"compound": "COc1ccc(Cn2nnnc2CN(Cc2cc3cccc(C)c3[nH]c2=O)C2CCCC2)cc1", "activity, negative = inhibition": "inconclusive: -64.7% [inhibitor]"}, {"compound": "CC(C)CC(C(=O)NCc1ccccn1)N1C(=O)c2ccccc2C1=O", "note": "(centres undefined)", "activity, negative = inhibition": "inactive: 23.7%"}, {"compound": "O=C(NCCN1CCOCC1)c1ccc(=O)oc1", "Potency": "inconclusive: 89.1 µM [inhibitor, single point]"}, {"compound": "O=C(COc1ccccc1)OCC(=O)c1ccc(S(=O)(=O)N2CCCCC2)cc1", "Potency": "inconclusive: 8.91 µM [inhibitor, partial curve, poor fit]"}, {"compound": "Nc1ccccc1Nc1cc(-c2ccccc2)nn1-c1cccc(Cl)c1", "Potency": "inconclusive: 39.8 µM [inhibitor, single point]"}, {"compound": "COc1ccc(-n2cnnc2SCC(=O)Nc2cccc([N+](=O)[O-])c2)cc1", "activity, negative = inhibition": "inactive: -3.5% [at 102 µM]"}, {"compound": "Cc1cc(Br)c(NC(=O)CCNC(=O)OCc2ccccc2)cc1C", "activity, negative = inhibition": "inactive: 14.9% [at 102 µM]"}, {"compound": "CC(C)(C)c1ccc(C(=O)NCC(=O)OCC(=O)c2ccc3c(c2)-c2ccccc2C3)cc1", "activity, negative = inhibition": "inactive: 16.5%"}, {"compound": "CCOc1ccc(N(Cc2cc3ccc(C)cc3[nH]c2=O)C(=O)COC)cc1", "Potency": "inconclusive: 70.8 µM [inhibitor, partial curve, poor fit]"}, {"compound": "COc1ccc(-c2cc(C(C)=O)c(C)n2CCC(=O)Nc2cc(C)ccc2OC)cc1", "Potency": "inconclusive: 35.5 µM [inhibitor, single point]"}, {"compound": "COCc1cc(C)nc2sc3c(c12)NC(c1ccc(NC(C)=O)cc1)N(c1ccc(C)cc1)C3=O", "note": "(centres undefined)", "activity, negative = inhibition": "inactive: 12.4%"}, {"compound": "CC(O)c1nc2ccccc2n1C1CCCCC1", "note": "(centres undefined)", "activity, negative = inhibition": "inactive: 0.748%"}, {"compound": "CCOC(=O)c1cc(OC(=O)c2cccc(C)c2)n(-c2ccccc2)n1", "activity, negative = inhibition": "inactive: 28%"}, {"compound": "Cc1nc2c(sc3nc4c(cc32)COC(C)(C)C4)c(=O)n1Cc1ccccc1", "activity, negative = inhibition": "inactive: 13.6% [at 12.7 µM]"}, {"compound": "Cc1ccc(NC(=O)COC(=O)c2cc(Cl)ccc2[N+](=O)[O-])cc1", "Potency": "inconclusive: 89.1 µM [inhibitor, single point]"}, {"compound": "Cc1ccnc(NC(=O)c2ccc(N3C(=O)CCC3=O)cc2)c1", "Potency": "inconclusive: 17.8 µM [inhibitor, single point]"}, {"compound": "COc1cccc(/C=N/Nc2nc(Nc3ccc([N+](=O)[O-])cc3)nc(N3CCCC3)n2)c1O", "Potency": "inconclusive: 79.4 µM [inhibitor, single point]"}, {"compound": "COc1ccc(N2CCN(C(=O)Cc3cccs3)CC2)cc1", "Potency": "inconclusive: 3.55 µM [inhibitor, single point]"}, {"compound": "Cc1c(C)c2c(c(C)c1O)CCC(C)(CN1CCN(c3cc(N4CCCC4)nc(N4CCCC4)n3)CC1)O2", "note": "(centres undefined)", "Potency": "inconclusive: 31.6 µM [inhibitor, partial curve]"}, {"compound": "CCC(NC(=O)Nc1nnc(C(F)(F)F)s1)(C(F)(F)F)C(F)(F)F", "Potency": "inconclusive: 8.91 µM [inhibitor, full curve, poor fit]"}, {"compound": "CCOC(=O)c1ccccc1NC(=O)N1CCN2CCCCC2C1", "note": "(centres undefined)", "activity, negative = inhibition": "inactive: -10.8%"}, {"compound": "c1cnc2ccc3ncccc3c2c1", "Potency": "inconclusive: 50.1 µM [inhibitor, partial curve]"}, {"compound": "O=C1c2ccccc2C(=O)c2c1ccc(O)c2O", "activity, negative = inhibition": "inactive: -33.3% [at 2.33 µM]"}, {"compound": "COC(=O)c1ccc2c(=O)n(CCCCCC(=O)NCc3ccccn3)c(=O)[nH]c2c1", "Potency": "inconclusive: 89.1 µM [inhibitor, single point]"}, {"compound": "COc1ccc(N2CC(C(=O)NCCC3=CCCCC3)CC2=O)cc1", "note": "(centres undefined)", "Potency": "inconclusive: 89.1 µM [inhibitor, partial curve, poor fit]"}, {"compound": "CCOCCCNCc1ccc(OCc2ccccc2Cl)cc1", "activity, negative = inhibition": "inactive: 4.52%"}, {"compound": "COc1ccc(NC(=O)c2oc3c(c2C)-c2nn(Cc4c(F)cccc4Cl)cc2CC3)c(OC)c1", "activity, negative = inhibition": "inactive: -9.45%"}, {"compound": "Cc1[nH]n(-c2ccccc2)c(=O)c1C=Nc1ccc(S(=O)(=O)NC(N)=O)cc1", "Potency": "inconclusive: 79.4 µM [inhibitor, partial curve, poor fit]"}, {"compound": "Cc1ccc(OCC(=O)Nc2ccc(C(=O)OCc3cc(=O)n4nc(C5CC5)sc4n3)cc2)cc1", "activity, negative = inhibition": "inactive: 17.3%"}, {"compound": "O=S(=O)(Cc1ccccc1Cl)N1CCCCC1", "Potency": "inconclusive: 112 µM [inhibitor, partial curve, poor fit]"}, {"compound": "Cc1ccc(COc2ccc(-c3nnco3)cc2)cc1", "activity, negative = inhibition": "inactive: 14.8% [at 102 µM]"}, {"compound": "COc1ccccc1N1CCN(C(=O)c2ccc(Br)s2)CC1", "Potency": "inconclusive: 35.5 µM [inhibitor, single point]"}, {"compound": "CCC(=O)N1c2ccc(S(=O)(=O)CCC(=O)N3CCN(c4ccccc4F)CC3)cc2CC1C", "note": "(centres undefined)", "Potency": "inconclusive: 89.1 µM [inhibitor, single point]"}, {"compound": "Fc1ccccc1OCCCCN1CCCCC1", "Potency": "active: 50.1 µM"}, {"compound": "O=S(=O)(Cc1ccccc1)NCC1CCCN(Cc2ccc(F)c(F)c2)C1", "note": "(centres undefined)", "activity, negative = inhibition": "inactive: -34.2% [at 102 µM]"}, {"compound": "Cc1ccc(NC(=O)C(=O)NCC(c2cccnc2)N2CCN(C)CC2)cc1C", "note": "(centres undefined)", "activity, negative = inhibition": "inactive: -22%"}, {"compound": "COc1cc(C(=O)NC(=S)NC(C)C)cc(OC)c1OC", "activity, negative = inhibition": "inactive: -6.17% [at 102 µM]"}, {"compound": "O=C(Nc1ccc(C(F)(F)F)cc1)C1CCCN1S(=O)(=O)c1cccc2cccnc12", "note": "(centres undefined)", "Potency": "inconclusive: 89.1 µM [inhibitor, single point]"}, {"compound": "CC(=O)N(Cc1cc(=O)[nH]c2ccccc12)c1cccc(C)c1", "Potency": "inconclusive: 5.62 µM [inhibitor, full curve, poor fit]"}, {"compound": "CCCCCNC(=O)c1cc(S(=O)(=O)N2CCCCC2)ccc1F", "activity, negative = inhibition": "inactive: -1.3% [at 12.7 µM]"}, {"compound": "COc1ccc(-c2nc(CSCC(=O)NCc3ccc4c(c3)OCO4)c(C)o2)cc1", "Potency": "inconclusive: 89.1 µM [inhibitor, single point]"}, {"compound": "Cc1c2cnn(CC(=O)Nc3c(F)c(F)cc(F)c3F)c(=O)c2c(C)n1Cc1ccccc1F", "Potency": "inconclusive: 39.8 µM [inhibitor, partial curve]"}, {"compound": "Cc1cc(C)n(-c2nc3ccccc3nc2Nc2cccc(C(F)(F)F)c2)n1", "activity, negative = inhibition": "inactive: 73.8%"}, {"compound": "CCN1CCN(C(=S)Nc2cccc(Cl)c2)CC1", "Potency": "inconclusive: 50.1 µM [inhibitor, partial curve, poor fit]"}, {"compound": "COc1ccccc1NC(=O)c1cc(C(=O)Nc2ccccc2OC)cc([N+](=O)[O-])c1", "activity, negative = inhibition": "inactive: 17.3% [at 102 µM]"}, {"compound": "COc1ccc(OC)c(-c2nc(Nc3ccccc3C)sc2CC(=O)O)c1", "Potency": "inconclusive: 39.8 µM [inhibitor, single point]"}, {"compound": "Cc1cc(NS(=O)(=O)c2ccc(NC(=O)COc3cc(C)c(Cl)c(C)c3)cc2)no1", "Potency": "inconclusive: 3.16 µM [inhibitor, partial curve, poor fit]"}, {"compound": "CC(=O)OC[C@H]1O[C@H](C/C=N/OC[C@@H](O)[C@H]2O[C@@H]3OC(C)(C)O[C@@H]3[C@H]2O)C=C[C@@H]1OC(C)=O", "Potency": "inconclusive: 89.1 µM [inhibitor, single point]"}, {"compound": "CCCc1ccc2oc(C(=O)N(C)CCn3ccnc3C)c(C)c2c1", "activity, negative = inhibition": "inactive: 15.6% [at 102 µM]"}, {"compound": "COCC(C)n1c(SCc2ccc(C(=O)OC)o2)nc2ccccc2c1=O", "note": "(centres undefined)", "Potency": "inconclusive: 2 µM [inhibitor, partial curve, poor fit]"}, {"compound": "COc1ccc(NS(=O)(=O)c2ccc3nc(COc4ccc5ccccc5c4)[nH]c3c2)cc1", "Potency": "inconclusive: 79.4 µM [inhibitor, partial curve, poor fit]"}, {"compound": "CC(=O)N1CCC(C(=O)c2ccc(Cl)cc2)CC1", "Potency": "inconclusive: 89.1 µM [inhibitor, single point]"}, {"compound": "COc1ccc(-c2nnn(CC(=O)Nc3ccc4c(c3)OCCO4)n2)cc1OC", "activity, negative = inhibition": "inactive: 8.59% [at 12.7 µM]"}, {"compound": "Cc1cc(NC(=O)CCC(=O)N(c2ccccc2)C(C(=O)NC2CCCC2)c2ccccc2F)no1", "note": "(centres undefined)", "activity, negative = inhibition": "inactive: 3.5% [at 102 µM]"}, {"compound": "Cc1cc(/C=C(\\C#N)C(=O)O)c(C)n1CC1CCCO1", "note": "(centres undefined)", "Potency": "inconclusive: 50.1 µM [inhibitor, partial curve, poor fit]"}, {"compound": "Cc1cc(C)n(-c2nnc(C)n2/N=C/c2cc(Br)ccc2OCc2ccccc2)n1", "Potency": "inconclusive: 79.4 µM [inhibitor, single point]"}, {"compound": "CCc1ccc(NS(=O)(=O)c2ccc3[nH]cc(C(=O)NC4CCCC4)c(=O)c3c2)cc1", "Potency": "inconclusive: 35.5 µM [inhibitor, single point]"}, {"compound": "CCc1cccc(NC(=O)CSC2=NS(=O)(=O)c3ccccc32)c1", "Potency": "active: 8.91 µM"}, {"compound": "COc1cccc(-n2c(N)c(-c3nc4ccccc4[nH]3)sc2=S)c1", "Potency": "inconclusive: 10 µM [inhibitor, partial curve, poor fit]"}, {"compound": "COc1ccc(OC)c2c(C)cc(N3CCCN(C)CC3)nc12", "activity, negative = inhibition": "inactive: -10.8% [at 12.7 µM]"}, {"compound": "Cc1nnc(NC(=O)C2CCN(C(=O)c3ccco3)CC2)s1", "Potency": "inconclusive: 89.1 µM [inhibitor, single point]"}, {"compound": "CN1/C(=C\\C(=O)c2ccco2)C(C)(C)c2ccccc21", "Potency": "inconclusive: 89.1 µM [inhibitor, single point]"}, {"compound": "CC(C)CCNC(=O)CN1C(=O)COc2ccc(S(=O)(=O)N3CCOCC3)cc21", "activity, negative = inhibition": "inactive: 1.9%"}, {"compound": "CCOC(=O)C1=C(COC(=O)c2ccc([N+](=O)[O-])o2)NC(=O)NC1C", "note": "(centres undefined)", "Potency": "inconclusive: 22.4 µM [inhibitor, single point]"}]}]}
